Source: PubChem BioAssay AID1671193 (National Center for Advancing Translational Sciences (NCATS), 2021)
Several values for one entry are separate records, joined by “and”; a condition that tells them apart may be missing. Equal entries are not always repeated. The whole screen tested about 150,000 compounds, of which about 180 (0.12%) were called active. Inconclusive results, whose numbers are uncertain, are shown with a selection of clear calls. The call rests on the fitted dose curve; in most records, active means well fitted cell-killing curve with a large enough effect; inconclusive means small, poorly fitted or top-dose-only effect, or effect the other way; inactive means flat fitted curve, though single readings scatter. A potency beside an inconclusive call is a rough fit, not a confirmed value.

experiment: GF-AFC viability counterscreen for inhibitors of alpha-synuclein gene (SNCA) expression; settings: HEK-293-SNCA-luc viability, GF-AFC fluorescence, 24 h; activity change, negative = cytotoxicity: at 57.1 µM (top of the series) unless noted; further: nearly all actives have a fitted effect of over 30% in size;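 on activity change, negative = cytotoxicity: 0% = DMSO-treated cells and -100% = medium-only wells without cells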
In short: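 HEK-293-SNCA-luc cells (1500/well) plated 24 h, then exposed 24 h to a dilution series; GF-AFC added 30 min at 37C, fluorescence 405/540 nm; normalised to medium-only and DMSO wells, Hill fit.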
Potency means the concentration at half of the fitted maximal effect; tags describe the fitted curve by direction and shape.

Structure (SMILES) | Potency | activity change, negative = cytotoxicity
O=C(NCCc1csc(-c2ccncc2)n1)C1CNCCO1 (stereo not drawn) | inactive | –
COc1ccc(Cn2c(-c3ccc(Cl)cc3)nc(C)c(CCO)c2=O)cc1F | inactive | –
O=C(NCc1ccccc1)c1ccccc1OC1CN(Cc2cccc(F)c2F)C1 | inconclusive: 39.8 µM [cytotoxic, single point] | –
C=CC1(C)C=C2CCC3C(C)(C)C(O[C@@H]4O[C@@H](CO)[C@H](O)[C@H]4O)CCC3(C)C2CC1O[C@@H]1O[C@H](C)[C@H](O)[C@H](O)[C@H]1O (stereo partly drawn) | inconclusive: 1.46 µM [rising, partial curve] | –
CCC(=O)N1c2ccccc2CC1C(=O)NCCCN1CCN(c2cc(C)ccc2C)CC1 (stereo not drawn) | inconclusive: 44.7 µM [cytotoxic, single point] | –
O=C(Nc1cccc(F)c1)c1cnc(-c2ccc(F)cc2)nc1-c1ccncc1 | inconclusive: 22.4 µM [cytotoxic, partial curve, poor fit] | –
O=C1C[C@H]2CC[C@@H](CN1)N2Cc1ccc(OCc2ccccc2)cc1 | inactive | –
COc1ccc(-c2noc([C@@H]3CCCN3C(=O)Cc3ccc(C)cc3)n2)cc1OC | inconclusive: 39.8 µM [cytotoxic, partial curve, poor fit] | –
COc1ccc(CN2C(=O)[C@@H]3C[C@@H](CN3Cc3cccs3)Oc3ccccc32)cc1 | inconclusive: 14.1 µM [cytotoxic, partial curve, poor fit] | –
Cc1cc(C)c(C)c(S(=O)(=O)N2CCC(c3c[nH]c4c(C)cccc34)CC2)c1C | inconclusive: 39.8 µM [cytotoxic, single point] | –
COc1ncccc1-c1cnc2[nH]cc(CC(=O)Nc3cccnc3)c2c1 | inconclusive: 22.4 µM [cytotoxic, partial curve, poor fit] | –
COc1cc2c(Nc3ccc(Cl)c(Cl)c3F)ncnc2cc1OCC1C[C@@H]2CN(C)C[C@@H]2C1 (stereo partly drawn) | inconclusive: 37.7 µM [cytotoxic, single point] and inconclusive: 27 µM [cytotoxic, partial curve] | –
O=C(CN1C(=O)NC2(CCCCC2)C1=O)Nc1ccc2c(c1)OCCO2 | inactive | –
COc1cccc(-c2cn(-c3ccc(CCN4CCC(O)CC4)cc3)c3ncnc(N)c23)c1 | inconclusive: 29.9 µM [cytotoxic, single point] | –
COc1ccc(C(=O)N2CCC3(CC2)NC(=O)N(Cc2ccc(C)cc2)C3=O)cc1OC | inactive | –
COc1ccc(-c2nn(-c3ccccc3)cc2CN2CCN3CCCC3C2)c(F)c1 (stereo not drawn) | inactive | –
COc1ccc(CNC(=O)c2cccc3c2CCN3C(=O)c2ccc(F)cc2)cc1OC | inconclusive: 11.2 µM [cytotoxic, partial curve] | –
Cc1ccc(-n2ncc3c(N(C)Cc4ccccc4)ncnc32)cc1 | inactive | –
Cc1cccc(C(=O)Nc2ccc3ncnc(N4CCCCC4)c3c2)c1 | inconclusive: 39.8 µM [cytotoxic, single point] | –
O=C(c1cccc2[nH]ccc12)N1CC[C@@H]2COCCN(Cc3ccncc3)[C@@H]2C1 | inactive | –
Cc1nn(C(=O)c2ccccc2)c(C)c1Sc1ccc(Cl)cc1 | active: 20 µM | –

Structure (SMILES) | Potency | activity change, negative = cytotoxicity
Cc1ccc(C(c2sc3nc(-c4ccco4)nn3c2O)N2CCOCC2)cc1 (stereo not drawn) | inconclusive: 1.26 µM [rising, full curve, poor fit] | –
CCC1(CC)CC1C(=O)N1CCc2onc(-c3cccc(F)c3)c2C1 (stereo not drawn) | inactive | –
COc1ccc(S(=O)(=O)NCCc2csc3nc(-c4ccc(Cl)cc4)nn23)cc1C | inconclusive: 12.6 µM [cytotoxic, partial curve, poor fit] | –
CN1C(=O)c2cccn2CC1C(=O)N1CCN(c2ccccn2)CC1 (stereo not drawn) | inactive | –
CN1CCN(C(=O)C(C)(C)Oc2nn(Cc3cccc(Cl)c3)c3ccccc23)CC1 | inconclusive: 31.6 µM [cytotoxic, partial curve, poor fit] | –
Cc1noc(-c2ccccc2Cl)c1C(=O)NCCCc1ccccc1 | inactive | –
O=C1CCCCC(C(=O)N2CC=C(c3ccccc3)CC2)N1 (stereo not drawn) | inactive | –
COc1ccccc1CNC(=O)CN1C(=O)CSc2ccc(S(=O)(=O)N3CCCCC3)cc21 | inconclusive: 17.8 µM [cytotoxic, partial curve, poor fit] | –
CN(c1cc(=O)c2ccnc(-c3ccc([S+](C)(=O)[O-])cc3)c2o1)C1CCOCC1 | inactive | –
COc1ccc(-n2nc3c(N4CCCC(C(=O)NCc5cccc(F)c5)C4)nnc(C)c3c2C)cc1 (stereo not drawn) | inconclusive: 12.6 µM [cytotoxic, partial curve, poor fit] | –
CC(C)c1cc(NCC2CCCCCN2)nc(N)n1 (stereo not drawn) | inconclusive: 44.7 µM [cytotoxic, partial curve, poor fit] | –
CC(C)(C)C(=O)NCCc1nc2ccccc2n1CCCCOc1ccc(Cl)cc1 | inconclusive: 39.8 µM [cytotoxic, single point] | –
COc1ccc(-c2cc(N3CCCC(NC(=O)C4CCCCC4)C3)n[nH]2)cc1 (stereo not drawn) | inconclusive: 25.1 µM [cytotoxic, partial curve, poor fit] | –
CCCCCCCCn1cc(CN(CC)CC)c2cc(-c3cnc(N)nc3)ccc21 | inconclusive: 23.8 µM [cytotoxic, partial curve, poor fit] | –
O=C(NCCN1CCCC1)C1Cn2cccc2C(=O)N1Cc1ccccc1 (stereo not drawn) | inactive | –
COc1ccc(C(=O)NCc2nnc3ccc(-c4ccc(C)c(C)c4)nn23)cc1F | inconclusive: 2.24 µM [cytotoxic, partial curve, poor fit] | –
COc1ccc(Cn2c(C(=O)O)c(CNCCc3cccs3)c3ccc(C)cc32)cc1 | inconclusive: 25.1 µM [cytotoxic, single point] | –
Cn1cccc1C(=O)N1CCCC(C(=O)NCc2ccccc2)CCNC(=O)CC1 (stereo not drawn) | inactive | –
COc1ccccc1Nc1cc(C(=O)NC2CCCC2)c2ccccc2n1 | inconclusive: 25.1 µM [rising, partial curve, poor fit] | –
C[S+](=O)([O-])c1ccc(-c2nc(C(=O)N3CCCC3)n3ccncc23)cc1 | inconclusive: 14.1 µM [rising, partial curve] | –
CN(c1ccccc1)c1cc(=O)c2ccnc(-c3ccnn3C)c2o1 | inactive | –

Structure (SMILES) | Potency | activity change, negative = cytotoxicity
COc1ccc(C(=O)N[C@@H]2CCC[C@@H]2C(=O)N2CCN(c3ccc(Cl)cc3)CC2)cn1 | inconclusive: 12.6 µM [cytotoxic, partial curve] | –
CCc1nc2c(c(-c3ccc(O)cc3)n1)CN(C(=O)c1ccc(OC)cc1)CC2 | inactive | –
O=C(O)COc1ccc(-c2nccc3c2C(=O)N(Cc2c[nH]c4ccccc24)CC(COc2ccccc2F)O3)cc1 (stereo not drawn) | inactive | –
CCCCOc1ccc(C(=O)N2CCC[C@H]2c2nc(-c3ccccc3Cl)no2)cc1 | inconclusive: 39.8 µM [cytotoxic, single point] | –
CN1c2cc(C(N)=O)ccc2C(=O)N2CCCCCC21 (stereo not drawn) | inconclusive: 7.08 µM [rising, single point] | –
Cc1ccc(CNC(=O)CCCCCn2c(=O)c3sccc3n(CC(=O)N(C)c3ccccc3)c2=O)cc1 | inconclusive: 5.62 µM [cytotoxic, partial curve, poor fit] | –
CCc1ccc(NC(=O)c2ccc(Cn3ccn4nc5c(c4c3=O)CCCC5)cc2)cc1 | inactive | –
Cc1nc2cccnc2n1CC1CCCN(S(=O)(=O)c2cccc(Cl)c2)C1 (stereo not drawn) | inactive | –
COc1ccc(CN[C@@H]2C=C[C@@H](c3c(C)nn(-c4cccc(Br)c4)c3C)C2)cc1 | inconclusive: 20 µM [cytotoxic, single point] | –
CCCCOc1ccc(C(=O)N2CCN(CCc3ccccn3)CC2)cc1 | inconclusive: 3.55 µM [rising, full curve, poor fit] | –
COc1ccccc1-c1ccc(C(=O)N2CCC(N[S+](=O)([O-])c3c(C)noc3C)CC2)cc1 | inconclusive: 0.631 µM [cytotoxic, partial curve, poor fit] | –
CCn1ncc(CN2CCCCCNC(=O)CC2c2ccccc2)c1C (stereo not drawn) | inconclusive: 22.4 µM [cytotoxic, single point] | –
CCOc1ccc(C(=O)N2CCCN(c3cc(-c4ccc(Cl)cc4)[nH]n3)CC2)cc1OCC | inconclusive: 35.5 µM [cytotoxic, single point] | –
O=C(O)C1(Oc2ccccc2F)CCN(Cc2ccc(CO)o2)CC1 | inconclusive: 3.16 µM [cytotoxic, single point] | –
CCN1c2cc(C(=O)Nc3ccc(C(C)C)cc3)ccc2C(=O)N2CCCCC21 (stereo not drawn) | – | inactive: -2.82% [at 12.5 µM]
Cc1cc(C)c(CNC(=O)c2nc(-c3ccc(CN(C)C)cc3)cc3c2ccn3C(C)C)c(=O)[nH]1 | inconclusive: 20 µM [cytotoxic, partial curve, poor fit] | –
O=C1N(CCc2ccccc2)c2ccccc2C12CCN(CC1CC1)C2 (stereo not drawn) | inconclusive: 56.2 µM [cytotoxic, single point] | –
Cc1noc(C)c1-c1cc2c(c(-c3ccccc3Oc3ccccc3)c1)C(=O)N(C)C2 | inconclusive: 31.6 µM [cytotoxic, single point] | –
COc1cc(OC)cc(C(=O)NC2CCN(c3cc(-c4cccs4)[nH]n3)C2)c1 (stereo not drawn) | inconclusive: 39.8 µM [cytotoxic, single point] | –
COc1ccc(Nc2cnc3ccc(-c4cccc(CO)c4)nn23)cc1OC | inconclusive: 56.2 µM [cytotoxic, single point] | –
CCOC(=O)C[C@@H]1C[C@@H](C(C)C)[C@H](CNS(=O)(=O)c2ccccc2)C=C1C | inconclusive: 35.5 µM [cytotoxic, single point] | –
